About 360 (0.092%) of roughly 390,000 compounds were called active. The shares of active, inactive and inconclusive entries below differ from those in the screen. Calls follow the shape of the dose curve; as a rule, active = well fitted inhibition curve with a large enough effect; inconclusive = small, poorly fitted or top-dose-only effect; inactive = no such curve, though single readings can be large or run the other way. Potencies beside an inconclusive call are fits to weak or partial responses and may not hold up.
molecular target: Isocitrate dehydrogenase [NADP] cytoplasmic (Homo sapiens) (UniProt O75874); assay: qHTS for Inhibitors of mutant isocitrate dehydrogenase 1 (IDH1): qHTS; conditions: IDH1-R132H enzyme, NADPH consumption, diaphorase/resazurin fluorescence; series mostly up to 76.6 µM; also: nearly all actives have a fitted effect of over 65% in size
In short: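 IDH1-R132H (0.5 ug/mL dispensed) in pH 7.5 Tris buffer was preincubated 30 min with compound, then given a substrate mix of 0.016 mM NADPH and 2 mM alpha-KG for 80 min at room temperature; remaining NADPH was read by diaphorase/resazurin fluorescence.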
Potency is read from the fitted curve at half-maximal effect; tags tell the direction and shape of the fitted curve.

| SMILES | Potency |
| --- | --- |
| Cn1c(=O)cc2c3c(c(N4CCCCC4)ccc31)C(=O)c1ccccc1-2 | inconclusive: 58.5 µM [inhibitor, single point] |
| O=C(Nc1cc(C(F)(F)F)ccc1N1CCOCC1)c1n[nH]c(=O)c2ccccc12 | active: 11.7 µM |
| O=C(NN1C(=O)/C(=C\c2cccnc2)SC1=S)C(c1ccccc1)c1ccccc1 | inconclusive: 58.5 µM [inhibitor, partial curve, poor fit] |
| CCOc1cccc(C(=O)N2CCC(c3nc4ccccc4s3)CC2)c1 | inconclusive: 28.2 µM [inhibitor, single point] |
| Cc1cc(OCc2nn[nH]n2)c2c(C)c(Cc3ccccc3)c(=O)oc2c1 | inconclusive: 58.5 µM [inhibitor, single point] |
| C=CS(=O)(=O)c1ccc(Oc2ccc(S(=O)(=O)C=C)cc2)cc1 | active: 31.6 µM |
| O=C1/C(=C/c2ccncc2)CCC/C1=C\c1ccncc1 | inconclusive: 58.5 µM [inhibitor, single point] |
| CCOc1ccccc1-c1nc(-c2ccc(C)nc2OC)no1 | inactive |
| CCC(C)Sc1ccc([C@@H]2[C@@H]3C(=O)N(CC)C(=O)[C@@H]3[C@]3(C(=O)OC)CCCCN23)cc1OC (some centres undefined) | inactive |
| CCOC(=O)C1=C(O)/C(=C/c2ccc(OCC(=O)O)c(OCC)c2)SC1=Nc1ccc(C)cc1 | inconclusive: 23.3 µM [inhibitor, single point] |
| Cc1cc(C)nc(SCC(=O)NC2=NN=C(c3ccc(Br)cc3)CS2)n1 | inconclusive: 28.2 µM [inhibitor, full curve] |
| O=c1[nH]c2ccccc2c(O)c1O | inactive |
| Fc1ccccc1CSc1nnc(-c2cccnc2)o1 | inactive |
| Cc1cc(C(=O)NNS(=O)(=O)c2ccc(C(C)(C)C)cc2)nn1C(C)(C)C | inconclusive: 58.5 µM [inhibitor, single point] |
| CC(=O)Nc1ccc(C)cc1-c1nc2ccccc2n(CC(=O)c2ccc(C)c(C)c2)c1=O | inconclusive: 50.1 µM [inhibitor, single point] |
| Cc1ccc(-c2ccc(/C=C3\SC(N4CCOCC4)=NC3=O)o2)cc1 | inconclusive: 63.1 µM [inhibitor, single point] |
| Cc1cccn2c(=O)c3cc(C(=O)NC4CCCCC4)c(=N)n(Cc4ccc(F)cc4)c3nc12 | inactive |
| Fc1ccc(-n2cc(-c3ccccc3)c3c(=S)nc[nH]c32)cc1 | inconclusive: 58.5 µM [inhibitor, single point] |
| CC(C)(C)OC(=O)N1CC=C2C(C#N)=C(N)C(C#N)(C#N)[C@H](c3cccnc3)[C@H]2C1 | inconclusive: 10.4 µM [inhibitor, full curve, poor fit] |
